Results published in article PMC5892938.
The list shows a part of the results. At the low end of the ranking the order means little.

Each sequence was assayed against GST-SBP-SLBP (stem-loop binding protein) (UniProt Q14493) (assay: targeted RNA Bind-n-Seq). Details: RBNS binding buffer: 25 mM Tris pH 7.5, 150 mM KCl, 3 mM MgCl2, 0.1% Tween, 0.5 mg/mL BSA, 1 mM DTT; 27 nM protein, 750 pM RNA pool; temperature not stated; high values mean tight binding.
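Further: DESeq read counts versus GST-SBP nonspecific binding control pulldown.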

| Sequence | binding signal (log2 fold change) |
| --- | --- |
| GGUCACGUCUCAAUCAACUCAUUCCCAGGAGUUUCCUCCUGUAUUCUCAACAGCUCGCAGUCAAG | 0.0837 |
| GGUCACGUCUCAAUCAACUCUUCCCCAGGAGUUUCCUCCUGUAAACUCAACAGCUCGCAGUCAAG | 0.0453 |
| GGUCACGUCUCAAUCAACUCUUAAGAGGGGGGGAAAACCCCUUUGCCCUCCGUAUCAACAGCUCGCAGUCAAG | 0.223 |
| GGUCACGUCUCAAUCAACUCUAUGGCAGGAGUUUUCUCCUGGAAUCUCAACAGCUCGCAGUCAAG | 0.0311 |
| GGUCACGUCUCAAUCAACUCUUUUUCAGGAGUUUUCUCCUGCUAACUCAACAGCUCGCAGUCAAG | 0.159 |
| GGUCACGUCUCAAUCAACUCUCAAGAGGGGGGGAAAACCCCUUUACCCUCAACAUCAACAGCUCGCAGUCAAG | -0.183 |
| GGUCACGUCUCAAUCAACUCAAUCUCAGGAGUUUCCUCCUGUUUUUUCAACAGCUCGCAGUCAAG | -0.0116 |
| GGUCACGUCUCAAUCAACUCAACUUCAGGAGUUUCCUCCUGCAAAUUCAACAGCUCGCAGUCAAG | -0.00568 |
| GGUCACGUCUCAAUCAACUCUAUCUCAGGAGUUUACUCCUGCAAUCUCAACAGCUCGCAGUCAAG | -0.157 |
| GGUCACGUCUCAAUCAACUCCCCAGAGGGGGGGAAAACCCCUUUACCCUCAUCCUCAACAGCUCGCAGUCAAG | 0.566 |
| GGUCACGUCUCAAUCAACUCAUCUUCAGGAGUUUCCUCCUGUUUUCUCAACAGCUCGCAGUCAAG | -0.0366 |
| GGUCACGUCUCAAUCAACUCAUUUCCAGGAGUUUCCUCCUGUUUUUUCAACAGCUCGCAGUCAAG | 0.0382 |
| GGUCACGUCUCAAUCAACUCCGCAGAGGGGGGGAAAACCCCUUUACCCUCAAUUUCAACAGCUCGCAGUCAAG | -0.113 |
| GGUCACGUCUCAAUCAACUCUUCCUCCAGGGAAAGCCCUGGUUUACUCAACAGCUCGCAGUCAAG | -0.122 |
| GGUCACGUCUCAAUCAACUCUUUUCCAGGAGUUUACUCCUGUAUUCUCAACAGCUCGCAGUCAAG | -0.0402 |
| GGUCACGUCUCAAUCAACUCAAUUUCAGGAGUUUCCUCCUGCUUAGUCAACAGCUCGCAGUCAAG | 0.0515 |
| GGUCACGUCUCAAUCAACUCGUCUUCAGGAGUUUUCUCCUGUAUUUUCAACAGCUCGCAGUCAAG | -0.0544 |
| GGUCACGUCUCAAUCAACUCUAUCUCAGGAGUUUCCUCCUGUUAAUUCAACAGCUCGCAGUCAAG | 0.0954 |
| GGUCACGUCUCAAUCAACUCAACUCCCAGGGAAAUCCCUGGCAAACUCAACAGCUCGCAGUCAAG | 0.272 |

| Sequence | binding signal (log2 fold change) |
| --- | --- |
| GGUCACGUCUCAAUCAACUCUACUUCCAGGGAAAGCCCUGGCUAUUUCAACAGCUCGCAGUCAAG | -0.0124 |
| GGUCACGUCUCAAUCAACUCUCCAGAGGGGGGGAAAACCCCUUUACCCUCCAUAUCAACAGCUCGCAGUCAAG | -0.00132 |
| GGUCACGUCUCAAUCAACUCAUUUUCAGGAGUUUACUCCUGUAGUCUCAACAGCUCGCAGUCAAG | -0.0516 |
| GGUCACGUCUCAAUCAACUCUUUCUCAGGAGUUUCCUCCUGUAAUUUCAACAGCUCGCAGUCAAG | -0.0423 |
| GGUCACGUCUCAAUCAACUCAUCUCCAGGAGUUUGCUCCUGCUUAUUCAACAGCUCGCAGUCAAG | 0.188 |
| GGUCACGUCUCAAUCAACUCACUAGAGGGGGGGAAAACCCCUUUACCCUCCGUUUCAACAGCUCGCAGUCAAG | -0.0558 |
| GGUCACGUCUCAAUCAACUCUAGUCCAGGAGUUUACUCCUGCUUUUUCAACAGCUCGCAGUCAAG | -0.295 |
| GGUCACGUCUCAAUCAACUCAUUCCCCAGGGAAAGCCCUGGUUAAUUCAACAGCUCGCAGUCAAG | -0.153 |
| GGUCACGUCUCAAUCAACUCUUUAGAGGGGGGGAAAACCCCUUUACCCUCAUCAUCAACAGCUCGCAGUCAAG | 0.223 |
| GGUCACGUCUCAAUCAACUCAUCCCCCAGGGAAAACCCUGGCAUAUUCAACAGCUCGCAGUCAAG | -0.0869 |
| GGUCACGUCUCAAUCAACUCAAUUUCAGGAGUUUACUCCUGCUUAGUCAACAGCUCGCAGUCAAG | 0.0418 |
| GGUCACGUCUCAAUCAACUCUAUUCCAGGAGUUUUCUCCUGCUAAUUCAACAGCUCGCAGUCAAG | 0.0919 |
| GGUCACGUCUCAAUCAACUCUAGUCCCAGGGAAAUCCCUGGUAAUUUCAACAGCUCGCAGUCAAG | -0.0756 |
| GGUCACGUCUCAAUCAACUCUAUCCCCAGGGAAACCCCUGGUAAAUUCAACAGCUCGCAGUCAAG | -0.0402 |
| GGUCACGUCUCAAUCAACUCAUCGUCAGGAGUUUGCUCCUGCUAUUUCAACAGCUCGCAGUCAAG | 0.0112 |
| GGUCACGUCUCAAUCAACUCUACUCCCAGGGAAACCCCUGGUUAUUUCAACAGCUCGCAGUCAAG | 0.226 |
| GGUCACGUCUCAAUCAACUCAAGUCCAGGAGUUUUCUCCUGCAUAUUCAACAGCUCGCAGUCAAG | 0.0783 |
| GGUCACGUCUCAAUCAACUCUUUCUCAGGAGUUUUCUCCUGCAAUCUCAACAGCUCGCAGUCAAG | 0.0902 |
